# PMC12820563, “FoxP3 forms a head-to-head dimer in vivo and stabilizes its multimerization on adjacent microsatellites”
# The list shows a part of the results.
# Target: T1, MBP-FoxP1dN (Mus musculus, UniProt P58462 326-579)
# T1 sequence: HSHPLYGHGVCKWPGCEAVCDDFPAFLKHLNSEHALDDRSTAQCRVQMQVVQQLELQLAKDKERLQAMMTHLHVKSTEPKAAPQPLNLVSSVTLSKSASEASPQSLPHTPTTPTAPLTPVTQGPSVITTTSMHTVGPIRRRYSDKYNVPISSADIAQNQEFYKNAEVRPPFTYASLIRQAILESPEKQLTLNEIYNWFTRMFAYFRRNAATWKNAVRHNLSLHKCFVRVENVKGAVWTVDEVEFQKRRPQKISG
# Assay: PD-seq (MBP pull-down with sequencing); 20 mM Tris-HCl pH 7.5, 100 mM NaCl, 1.5 mM MgCl2, 0.4 uM protein, 0.1 uM dsDNA library, 30 min, room temperature, amylose pull-down; high values mean tight binding
# Details: protein: recombinant; tags: His6-MBP; chain copies: 2; dsDNA, one strand shown
# Method in brief: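 In Tris pH 7.5 buffer with NaCl and MgCl2, 0.4 µM His6-MBP-tagged mouse FoxP3 or FoxP1 fragment lacking the N-terminus, from E. coli, met 0.1 µM Klenow-filled double-stranded degenerate DNA library for 30 min at room temperature. Three washes on amylose resin followed capture of the complexes, then proteinase K release of DNA, PCR barcoding and Illumina sequencing. Binding is taken as pooled-replicate reads-per-million enrichment of pull-down relative to input.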
row,Sequence,binding signal
1,GATGATTGTTCTCCCAGCTGATGAATTGAGCACCTCGAGTAAACAAATTTTCCTAATCTTTCTGTTCAAGCGCCATCTAC,0.782 RPM ratio (pull-down/input)
2,GATGATTGTTCTCCCAGCTGATGAATTAAAGGAATCGAGTAAACAAATTTTCCTAATCTTTCTGTTCAAGCGCCATCTAC,0.934 RPM ratio (pull-down/input)
3,GATGATTGTTCTCCCAGCTGATGAATTGCAGGCTTCGAGTAAACAAATTTTCCTAATCTTTCTGTTCAAGCGCCATCTAC,0.964 RPM ratio (pull-down/input)
4,GATGATTGTTCTCCCAGCTGATGAATTGGAGCTCTCGAGTAAACAAATTTTCCTAATCTTTCTGTTCAAGCGCCATCTAC,0.773 RPM ratio (pull-down/input)
5,GATGATTGTTCTCCCAGCTGATGAATTATACATTTCGAGTAAACAAATTTTCCTAATCTTTCTGTTCAAGCGCCATCTAC,1.27 RPM ratio (pull-down/input)
6,GATGATTGTTCTCCCAGCTGATGAATTGGGGAGCTCGAGTAAACAAATTTTCCTAATCTTTCTGTTCAAGCGCCATCTAC,0.737 RPM ratio (pull-down/input)
7,GATGATTGTTCTCCCAGCTGATGAATTTAAAATGTCGAGTAAACAAATTTTCCTAATCTTTCTGTTCAAGCGCCATCTAC,0.928 RPM ratio (pull-down/input)
8,GATGATTGTTCTCCCAGCTGATGAATTGTAACACTCGAGTAAACAAATTTTCCTAATCTTTCTGTTCAAGCGCCATCTAC,1.17 RPM ratio (pull-down/input)
9,GATGATTGTTCTCCCAGCTGATGAATTTTAGGAATCGAGTAAACAAATTTTCCTAATCTTTCTGTTCAAGCGCCATCTAC,0.892 RPM ratio (pull-down/input)
10,GATGATTGTTCTCCCAGCTGATGAATTTACGATCTCGAGTAAACAAATTTTCCTAATCTTTCTGTTCAAGCGCCATCTAC,1.15 RPM ratio (pull-down/input)
11,GATGATTGTTCTCCCAGCTGATGAATTCTGGTATTCGAGTAAACAAATTTTCCTAATCTTTCTGTTCAAGCGCCATCTAC,0.915 RPM ratio (pull-down/input)
12,GATGATTGTTCTCCCAGCTGATGAATTGACTCCATCGAGTAAACAAATTTTCCTAATCTTTCTGTTCAAGCGCCATCTAC,1.06 RPM ratio (pull-down/input)
13,GATGATTGTTCTCCCAGCTGATGAATTAACTGTCTCGAGTAAACAAATTTTCCTAATCTTTCTGTTCAAGCGCCATCTAC,0.829 RPM ratio (pull-down/input)
14,GATGATTGTTCTCCCAGCTGATGAATTCAGCTCGTCGAGTAAACAAATTTTCCTAATCTTTCTGTTCAAGCGCCATCTAC,0.747 RPM ratio (pull-down/input)
15,GATGATTGTTCTCCCAGCTGATGAATTAAGAGTATCGAGTAAACAAATTTTCCTAATCTTTCTGTTCAAGCGCCATCTAC,1.06 RPM ratio (pull-down/input)
16,GATGATTGTTCTCCCAGCTGATGAATTGACCCTCTCGAGTAAACAAATTTTCCTAATCTTTCTGTTCAAGCGCCATCTAC,0.846 RPM ratio (pull-down/input)
17,GATGATTGTTCTCCCAGCTGATGAATTGCCAGTTTCGAGTAAACAAATTTTCCTAATCTTTCTGTTCAAGCGCCATCTAC,0.967 RPM ratio (pull-down/input)
18,GATGATTGTTCTCCCAGCTGATGAATTATGGCGATCGAGTAAACAAATTTTCCTAATCTTTCTGTTCAAGCGCCATCTAC,0.99 RPM ratio (pull-down/input)
19,GATGATTGTTCTCCCAGCTGATGAATTATGAATATCGAGTAAACAAATTTTCCTAATCTTTCTGTTCAAGCGCCATCTAC,1.07 RPM ratio (pull-down/input)
20,GATGATTGTTCTCCCAGCTGATGAATTAGACTACTCGAGTAAACAAATTTTCCTAATCTTTCTGTTCAAGCGCCATCTAC,0.82 RPM ratio (pull-down/input)

row,Sequence,binding signal
1,GATGATTGTTCTCCCAGCTGATGAATTTGAGCTATCGAGTAAACAAATTTTCCTAATCTTTCTGTTCAAGCGCCATCTAC,0.88 RPM ratio (pull-down/input)
2,GATGATTGTTCTCCCAGCTGATGAATTTAGCCTATCGAGTAAACAAATTTTCCTAATCTTTCTGTTCAAGCGCCATCTAC,0.952 RPM ratio (pull-down/input)
3,GATGATTGTTCTCCCAGCTGATGAATTGCGATGCTCGAGTAAACAAATTTTCCTAATCTTTCTGTTCAAGCGCCATCTAC,1.2 RPM ratio (pull-down/input)
4,GATGATTGTTCTCCCAGCTGATGAATTCTGGGCCTCGAGTAAACAAATTTTCCTAATCTTTCTGTTCAAGCGCCATCTAC,0.745 RPM ratio (pull-down/input)
5,GATGATTGTTCTCCCAGCTGATGAATTTACCGGATCGAGTAAACAAATTTTCCTAATCTTTCTGTTCAAGCGCCATCTAC,1.02 RPM ratio (pull-down/input)
6,GATGATTGTTCTCCCAGCTGATGAATTAGTTGGCTCGAGTAAACAAATTTTCCTAATCTTTCTGTTCAAGCGCCATCTAC,0.862 RPM ratio (pull-down/input)
7,GATGATTGTTCTCCCAGCTGATGAATTGCCACCGTCGAGTAAACAAATTTTCCTAATCTTTCTGTTCAAGCGCCATCTAC,0.977 RPM ratio (pull-down/input)
8,GATGATTGTTCTCCCAGCTGATGAATTTGGTGATTCGAGTAAACAAATTTTCCTAATCTTTCTGTTCAAGCGCCATCTAC,0.983 RPM ratio (pull-down/input)
9,GATGATTGTTCTCCCAGCTGATGAATTATACGAGTCGAGTAAACAAATTTTCCTAATCTTTCTGTTCAAGCGCCATCTAC,0.894 RPM ratio (pull-down/input)
10,GATGATTGTTCTCCCAGCTGATGAATTATGCGGATCGAGTAAACAAATTTTCCTAATCTTTCTGTTCAAGCGCCATCTAC,0.98 RPM ratio (pull-down/input)
11,GATGATTGTTCTCCCAGCTGATGAATTTGCCGCGTCGAGTAAACAAATTTTCCTAATCTTTCTGTTCAAGCGCCATCTAC,0.902 RPM ratio (pull-down/input)
12,GATGATTGTTCTCCCAGCTGATGAATTCTCTAGGTCGAGTAAACAAATTTTCCTAATCTTTCTGTTCAAGCGCCATCTAC,0.795 RPM ratio (pull-down/input)
13,GATGATTGTTCTCCCAGCTGATGAATTATGTACCTCGAGTAAACAAATTTTCCTAATCTTTCTGTTCAAGCGCCATCTAC,1.22 RPM ratio (pull-down/input)
14,GATGATTGTTCTCCCAGCTGATGAATTGACCATGTCGAGTAAACAAATTTTCCTAATCTTTCTGTTCAAGCGCCATCTAC,0.875 RPM ratio (pull-down/input)
15,GATGATTGTTCTCCCAGCTGATGAATTTTTTGTATCGAGTAAACAAATTTTCCTAATCTTTCTGTTCAAGCGCCATCTAC,1.26 RPM ratio (pull-down/input)
16,GATGATTGTTCTCCCAGCTGATGAATTAGAAGATTCGAGTAAACAAATTTTCCTAATCTTTCTGTTCAAGCGCCATCTAC,0.926 RPM ratio (pull-down/input)
17,GATGATTGTTCTCCCAGCTGATGAATTGGCCACCTCGAGTAAACAAATTTTCCTAATCTTTCTGTTCAAGCGCCATCTAC,0.827 RPM ratio (pull-down/input)
18,GATGATTGTTCTCCCAGCTGATGAATTGTCGGGGTCGAGTAAACAAATTTTCCTAATCTTTCTGTTCAAGCGCCATCTAC,0.788 RPM ratio (pull-down/input)
19,GATGATTGTTCTCCCAGCTGATGAATTTGAGCGTTCGAGTAAACAAATTTTCCTAATCTTTCTGTTCAAGCGCCATCTAC,0.876 RPM ratio (pull-down/input)
20,GATGATTGTTCTCCCAGCTGATGAATTGCGCTTTTCGAGTAAACAAATTTTCCTAATCTTTCTGTTCAAGCGCCATCTAC,1.24 RPM ratio (pull-down/input)
